Source: paper PMC12136788
The other results are listed elsewhere or left out.

B1: chr1:63024871:63024872:-_ENSG00000116641_ENST00000251157|hu_mus|motif|central (ssRNA)
RNA: GGGAGUUCUACAGUCCGACGAUCGUCCCCAAUUCGGACCGGGAACAUGUGUUCAUCCAGAGCAUUGACAAGAGCAAAGAAUUUGUCGGGAUAAGGGUCUUGUGUAUGAAUGGAUGAAACAGCAACAACUUCAACAUUAAAUACCAACAGAGGAUUGAGCAUCA
B2: chr3:16083472:16083473:+_ENSMUSG00000047213_ENSMUST00000108345|mus_mus|FALSE|FALSE (ssRNA)
RNA: GGGAGUUCUACAGUCCGACGAUCCGAACCAUUUUGUACUGAAACUUUAUUUCCUUGCCCUUUAGGUCUCUGAUCCACGCUAGUGGCUGACAUUCUUCACCGUAACCCGAGAGGAACCGCCGCCGCCGCCGCCGCUGCCUGGGCCAACAGAGGAUUGAGCAUCA
B3: 25040929_25041646_1894_CDS_ENSMUSG00000024163_ENSMUST00000117509|mouse|control|control (ssRNA)
RNA: GGGAGUUCUACAGUCCGACGAUCCACGUGUUCACGAACCUGGCGGUACUGCUCCCGCUUCUGCUCCCGCCGGGCAGAAGAGGUGCAGUCAUCAUCAGGGAAGAACUCCAGGGGCCUGCUGCCGGCUGAGAUCUGGCACAAAGCCAACAGAGGAUUGAGCAUCA
B4: 29625655_29628867_2727_3pUTR_ENSMUSG00000038084_ENSMUST00000160597|mouse|control|control (ssRNA)
RNA: GGGAGUUCUACAGUCCGACGAUCAAAAACCUCUGCGACAAAGGUUACAAUGAUUUAGAGCUGUUUUUAAGAAAUGUCUUCUAUAAACUUGAUGCCAAGUAUCCUUAAUCAAGCUUGGAUCGACUUCCACUCCUCGAGACUCCACAACAGAGGAUUGAGCAUCA
B5: chr6:87966076:87966077:+_ENSG00000188994_ENST00000369577|hu_hu|FALSE|FALSE (ssRNA)
RNA: GGGAGUUCUACAGUCCGACGAUCUAGAGGAGUAGUAGCAGGGUUUUCCAAACCAUUUGACAAUGGUCCAUUAGCUUGCCUGAGCUCAGAGGCAGAAAUCUGGUCUUGUUUGGUCACAGCUGAUUCUGCUUUGCUUUUAUCCCACAACAGAGGAUUGAGCAUCA
B6: chr10:20042908:20042909:+_ENSMUSG00000037608_ENSMUST00000043881|mus_mus|motif|central (ssRNA)
RNA: GGGAGUUCUACAGUCCGACGAUCGGACCGUGACCGACCUCGUCUAGGACUCCUAGAGUGCCUUCUAUUCCAGACAGGUCGGUAGCCACCUCGAUGGUAUCUCCCUCCUCCUCCUUGAUAAUACCCUCUACCCCUUCCUCUGUACAACAGAGGAUUGAGCAUCA
B7: chr10:57235669:57235670:-_ENSMUSG00000019877_ENSMUST00000020027|mus_mus|motif|central (ssRNA)
RNA: GGGAGUUCUACAGUCCGACGAUCUUCAGAAUUGUGAAGCAGUAUUAACACAGAGUAAGGCUGGAACAUGAAGAUGAACUGCGGUAGUACAUUUGCACAAUAAAUACUUUUAAAGACACAUGUAGUUCUUUAAAAGCUAGAUACCAACAGAGGAUUGAGCAUCA
B8: chr4:48850422:48850423:+_ENSG00000109180_ENST00000264312|hu_mus|FALSE|FALSE (ssRNA)
RNA: GGGAGUUCUACAGUCCGACGAUCAGCGAAUAGAAGUUUAGGAAUUGAACCAUAUUUUGGAUGACUUGACAGGAUUCCUUUACUAAUUAAUCCUUGAGUAAUCAGCAUACUUGUGGCAGCCAACGGCACAGAUCUGAACCAGAACAACAGAGGAUUGAGCAUCA
B9: chr20:52835626:52835627:+_ENSG00000101132_ENST00000441080|hu_hu|motif|central (ssRNA)
RNA: GGGAGUUCUACAGUCCGACGAUCAGCUUCAAGGUUUAUGUUGCUCCCGAAUUUUGCAUACAACUGAACUUUCAAAUCUGCGGACACUCGCUGAAUUGAUUCCACUCUGGAUUCUAAGGCGUCAAUUUCUUCUUGCAAAUUUUUCAACAGAGGAUUGAGCAUCA
B10: 29380636_29382213_4059_CDS_ENSMUSG00000032740_ENSMUST00000040182|mouse|control|control (ssRNA)
RNA: GGGAGUUCUACAGUCCGACGAUCCAUUAUAGAUUCAUUUUCAUUUUCUAAGGAAGACUGCUGGAUUAGAAGCUGUGCAUUCUGGUUCAUAAGUGAAGUACUUUGUGAAUUAAGGGUAGAAUUUUCAACCUGAAGCUUGGCAUUCAACAGAGGAUUGAGCAUCA
B11: chr9:50470998:50470999:-_ENSMUSG00000032064_ENSMUST00000117646|mus_hu|FALSE|FALSE (ssRNA)
RNA: GGGAGUUCUACAGUCCGACGAUCCAGUUAAAACUGGUUAUCACUUUGAUAAUCAGAAGCCUCUGGUGUAACAUAGUCUUCAUGAAAACAUAUUGUAAAACAGGGAGAAUACACAGUAAUAAUCUCUUUGAAAGCAAUGGCUGUCAACAGAGGAUUGAGCAUCA
B12: chr7:65705844:65705845:+_ENSG00000169902_ENST00000304842|hu_mus|hu_hu_hu_mus_False|1_88 (ssRNA)
RNA: GGGAGUUCUACAGUCCGACGAUCAAACGGAUCUUUGUUACAUAAAUAAGGGGCUGGCUCCCCAUGUUUAACAAUGACCUCCAGAAGGAAGGCUUGCAUGGCAGAAUCUAGCACUUCAUCUGUGACACCCGCCUCAUCCAGGCGCAACAGAGGAUUGAGCAUCA
B13: chr1:163112212:163112213:-_ENSG00000143248_ENST00000313961|hu_hu|hu_hu_hu_mus_False|98_98 (ssRNA)
RNA: GGGAGUUCUACAGUCCGACGAUCUUUUAUUAUCAGUAAGCAUGAGUUACAUACUAGGCAAAGUAUUGGAUACAAUAAUCAGGAAACAAACACUAUUGGUCCAGAAUUUAAAACUUUAUGAGCGAAGUGCUGGCACAGGACUUACAACAGAGGAUUGAGCAUCA
B14: chr4:73765705:73765706:+_ENSMUSG00000049122_ENSMUST00000084474|mus_hu|FALSE|FALSE (ssRNA)
RNA: GGGAGUUCUACAGUCCGACGAUCGUAUCUUGUGAGCUCUUCUUUAAUCUUCAAGGGUUCAUGUGGGUAGAAUUUCACUCUAAAGCACAUGGUGUAUGGUGGAUGAGUUUUCAUUUGCUUGAAGAUGGACUUGUUAGGUUCAAGCAACAGAGGAUUGAGCAUCA
B15: chr6:41757443:41757444:+_ENSG00000214736_ENST00000398881|hu_mus|hu_hu_hu_mus_False|8_98 (ssRNA)
RNA: GGGAGUUCUACAGUCCGACGAUCGAACCGUGCAGAGACCAGAGAAUAGCCGACACUGGGGGAUGGGGGGGCAGUGGGGGGGGGUUCAGGCAAGGAGAGGGAGUCAACUUCAGCUGCCACUCAGGUAGCUGCCAUCAGUCACAGCAACAGAGGAUUGAGCAUCA
B16: chr12:48362563:48362564:+_ENSG00000134291_ENST00000256686|hu_hu|hu_hu_hu_mus_False|1_1 (ssRNA)
RNA: GGGAGUUCUACAGUCCGACGAUCUCCGUCAAGCCCUUCGAUAGACCCUUGCGGGGGAAACUGUAAUCACUUUGUAUGGGGAAGGAAAAGAAACGCCAAAAACUUUCCAAAAAGCGGGGGUGGGGUGAGGCGGGAGGUUGGGAACAACAGAGGAUUGAGCAUCA
B17: chr13:85337103:85337104:+_ENSMUSG00000021548_ENSMUST00000022030|mus_mus|FALSE|FALSE (ssRNA)
RNA: GGGAGUUCUACAGUCCGACGAUCAUCGAUGAGGAAGCCUUCAAAUGGUCUGUAUGGAUUGUGGACAAUAAGGUGAAAAUUAAGUUGUUGUAUAAGUAGUAGUUCAUAUUCCAAAAUCUGUUCCAGUGCCCUCUCCUGUCCAAGCAACAGAGGAUUGAGCAUCA
B18: 84973231_84973351_108_3pUTR_ENSMUSG00000010608_ENSMUST00000048155|mouse|control|control (ssRNA)
RNA: GGGAGUUCUACAGUCCGACGAUCGGUACUGUCUUCGCGGCCUCUGGGCGUCAGGUGAUGGAGUGGGGCUCCACCGGUUCGAGGUGUCUGCGCGCCGCCCGACUCUAGAGACUGGUUCCGAAGCGCCUACUCGCCUAGGCCGCACAACAGAGGAUUGAGCAUCA
B19: chr1:60041781:60041782:+_ENSMUSG00000041040_ENSMUST00000036540|mus_hu|mus_mus_mus_hu_False|28_88 (ssRNA)
RNA: GGGAGUUCUACAGUCCGACGAUCAAGUUUACAAUAGUAAAGUAAAUCAAAUUUAGUCAAAUUUUCUUUUAUUUUCCUUCACAAAAGAAAAUCUUUAUAACCCAGUCCAAUCCCAGAACAUAGUGAAAGCUAUAAAUUCUGACUCAACAGAGGAUUGAGCAUCA
B20: chr1:241675328:241675329:-_ENSG00000091483_ENST00000366560|hu_hu|motif|central (ssRNA)
RNA: GGGAGUUCUACAGUCCGACGAUCGCUUUUAUUAACAUGAUCGUUGGGAUGCACAGGUAUCUUGCUGCCAAGUUCACCUCCGGACAUUUCAAUUGCUCUAUUGCUAAUGACUUCAUUUACAUUCAUAUUUGUCUGAGUUCCUGACAACAGAGGAUUGAGCAUCA
B21: chr17:21098601:21098602:+_ENSMUSG00000007564_ENSMUST00000007708|mus_mus|FALSE|FALSE (ssRNA)
RNA: GGGAGUUCUACAGUCCGACGAUCGGCUAAGACCUUGGGGAUGAUAGUGGCAUGGGCCCACUCCUUCCCGAACUUCUCUACUAAUUUCUUAAGGUUGCUGGUGGCAGCCUCACGGAUAGCAUAGACAUGAUCCACUAGCCAGGCCAACAGAGGAUUGAGCAUCA
B22: chr5:24101842:24101843:-_ENSMUSG00000028949_ENSMUST00000030791|mus_mus|FALSE|FALSE (ssRNA)
RNA: GGGAGUUCUACAGUCCGACGAUCCUCCUGGAUGUCCACCCGCUUCCGCAUGAUGGUUUGAUCCAGUUUCCUCUCAAAUGCUAGGAGGUCCAUGUAAGCCUGGGACUCGGGUACCAGCUCCCGAAUCCUUUGAGGGAGGAUUUUCAACAGAGGAUUGAGCAUCA

These binders were tested against T1, UNK ZnF1-3 (human, UniProt Q9C0B0 31-174) (assay: nsRBNS (natural sequence RNA bind-n-seq); RBNS binding buffer (assumed for nsRBNS): 25 mM Tris pH 7.5, 150 mM KCl, 3 mM MgCl2, 0.01% Triton X-100, 500 ug/ml BSA, 20 U/ml SUPERase-In, 4 C; UNK is unkempt and MSI1 is Musashi-1; names of the RNAs are library labels; protein concentration not given here; high values mean tight binding).
T1 sequence: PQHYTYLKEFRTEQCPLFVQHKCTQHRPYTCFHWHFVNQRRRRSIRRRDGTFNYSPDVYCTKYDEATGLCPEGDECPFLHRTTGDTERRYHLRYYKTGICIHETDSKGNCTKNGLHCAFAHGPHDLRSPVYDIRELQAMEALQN
For B1, the binding signal was 1.95 enrichment R.
Work on B2 yielded a binding signal of 0.935 enrichment R.
Work on B3 yielded a binding signal of 0.671 enrichment R.
B4 gave a binding signal of 0.802 enrichment R.
Work on B5 yielded a binding signal of 0.698 enrichment R.
For B6, the binding signal was 0.72 enrichment R.
B7 was tested, and the binding signal was 1.13 enrichment R.
Work on B8 yielded a binding signal of 1.59 enrichment R.
For B9, the binding signal was 1.12 enrichment R.
B10 showed a binding signal of 1.01 enrichment R.
For B11, the binding signal was 0.958 enrichment R.
B12 gave a binding signal of 0.802 enrichment R.
B13 was tested, and the binding signal was 1.65 enrichment R.
B14 showed a binding signal of 0.655 enrichment R.
Binder B15 has a binding signal of 2.05 enrichment R.
B16 gave a binding signal of 2.33 enrichment R.
B17 was tested, and the binding signal was 2.26 enrichment R.
B18 gave a binding signal of 0.541 enrichment R.
B19 was tested, and the binding signal was 0.427 enrichment R.
B20 gave a binding signal of 0.478 enrichment R.
B21 was tested, and the binding signal was 1.03 enrichment R.
Binder B22 has a binding signal of 0.564 enrichment R.
